To fix the notation:
B1: tRNA (parent)
chain: CUCUCGGUAGCCAAGUUGGUUUAAGGCGCAAGACUUUAAUUUAUCACUACGAAAUCUUGAGAUCGGGCGUUCGACUCGCCCCCGGGAGAUUUUUUCCUCGAGCAA

This sample is rich in variants without activity.

Drawing on the RNAGym collection of RNA variant scans (doi:10.1101/gad.245936.114), this text covers nonsense suppression for 167 variants.

In this series the parent is B1. The series can be described thus: nonsense suppression (GFP-seq) (ratio to wild type); higher = more function; SUP4oc tRNA, yeast GFP reporter sort-seq. The essentials: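 Yeast were grown in raffinose/galactose medium with 80 mg/L adenine, each strain bearing a genome-integrated ochre-suppressor tRNA variant from a ~3% random-mutation library, a galactose-driven GFP ochre reporter, and RFP. After sorting into GFP/RFP bins, every bin was sequenced on an Illumina platform at phred ≥30. The GFPSEQ value, a measure of nonsense suppression, is the weighted bin median GFP/RFP relative to the unmutated parent tRNA, using each variant's estimated cell share per bin as the weight. Only variants with ≥100 reads and ≥30 cells were included.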
In the case of G10C G15U A31U, the nonsense suppression was ≤ 0.026.

With U22C G67A C81G, the nonsense suppression is ≤ 0.026.

Turning to G67U C81G, the nonsense suppression is ≤ 0.026.

Take U21C G28U: the nonsense suppression is ≤ 0.026.

Turning to A54C, the nonsense suppression was determined as 1.16.

In the case of G6C G73C, the nonsense suppression was ≤ 0.026.

Regarding C11A A23U, the nonsense suppression is ≤ 0.026.

Take U20G A24C G61A A87G: the nonsense suppression was ≤ 0.026.

On to C29A U71C G84C, for which the nonsense suppression was ≤ 0.026.

Regarding A54G U71G G73A, the nonsense suppression is ≤ 0.026.

As to U4G U76A, the nonsense suppression came to 0.109.

For U2C U58A, the nonsense suppression is ≤ 0.026.

With U8G U16A A62C C68U, the nonsense suppression was ≤ 0.026.

Turning to G25A G26A C27U C29G A54G, the nonsense suppression is ≤ 0.026.

Consider G6U A33G C34U, for which the nonsense suppression was ≤ 0.026.

Turning to A9U A33U G67U U70A, the nonsense suppression was ≤ 0.026.

Turning to C12G A30C G59U, the nonsense suppression is ≤ 0.026.

Turning to U55A G86C, the nonsense suppression is ≤ 0.026.

For the variant G61U C72A, the nonsense suppression is ≤ 0.026.

Consider G59C A87C, for which the nonsense suppression was ≤ 0.026.

Consider G7A A9G, for which the nonsense suppression was ≤ 0.026.

For the variant C1A U63A G66C, the nonsense suppression was ≤ 0.026.

As to G10U C29U A54U, the nonsense suppression was ≤ 0.026.

For the variant G18U C68U, the nonsense suppression was ≤ 0.026.

Consider C5U G10C A62G, for which the nonsense suppression was ≤ 0.026.

Regarding U20C U57G C75G, the nonsense suppression is ≤ 0.026.

As to C64A G69C G86C, the nonsense suppression was ≤ 0.026.

Take C34U C81A C83G G84U: the nonsense suppression was ≤ 0.026.

G10A U22C U57C: the nonsense suppression is ≤ 0.026.

On to U35G C68A U71G G85U, for which the nonsense suppression is ≤ 0.026.

Regarding A31U A33C U55A G86A, the nonsense suppression was ≤ 0.026.

In the case of G15C G28U G65A C68A G86U, the nonsense suppression is ≤ 0.026.

As to U2G G15U, the nonsense suppression is ≤ 0.026.

As for C11A A13G U58A A74G, the nonsense suppression was ≤ 0.026.

Take A31G U63C C64U: the nonsense suppression is ≤ 0.026.

Regarding U58G G66C C80G, the nonsense suppression was found to be 0.0324.

On to C12U G65C U71G C75U G78A, for which the nonsense suppression is ≤ 0.026.

In the case of A62U C83A, the nonsense suppression was ≤ 0.026.

On to U16A A60U C82A A87U, for which the nonsense suppression is ≤ 0.026.

In the case of A14U A74G, the nonsense suppression was ≤ 0.026.

With C11A U70C C75A, the nonsense suppression was ≤ 0.026.

Consider G10U G18C, for which the nonsense suppression was ≤ 0.026.

Consider A24C A60C, for which the nonsense suppression was determined as 0.0269.

Take U2A U35C: the nonsense suppression was ≤ 0.026.

Take A9U A14G G61A U63C G86C: the nonsense suppression was ≤ 0.026.

Consider U20A A30C, for which the nonsense suppression is ≤ 0.026.

For the variant C29G G86A, the nonsense suppression is ≤ 0.026.

Consider U16A C34G G67U G73A C81U, for which the nonsense suppression is ≤ 0.026.

For A31G G67U A74G U76G C81A, the nonsense suppression is ≤ 0.026.

U70C C80A C81G: the nonsense suppression was ≤ 0.026.

As to U21G U22C A24U C27A C34G A74C, the nonsense suppression is ≤ 0.026.

As to C11G G88A A89U, the nonsense suppression is ≤ 0.026.

Turning to U57G A74C G84U, the nonsense suppression is ≤ 0.026.

With A23G A31U U55C G67U C72A, the nonsense suppression is ≤ 0.026.

On to U2C G15U, for which the nonsense suppression was ≤ 0.026.

As to A33C G67U A74G, the nonsense suppression is ≤ 0.026.

Consider U21C A30G A31G U63C, for which the nonsense suppression is ≤ 0.026.

With A9C G15C G59A U70C, the nonsense suppression is ≤ 0.026.

As for G10U A31G G67A C79A, the nonsense suppression is ≤ 0.026.

Take C83G G84A: the nonsense suppression is ≤ 0.026.

Turning to G59A G88C, the nonsense suppression was ≤ 0.026.

Turning to C34G G61A C75U G78C, the nonsense suppression is ≤ 0.026.

On to G28C U63C, for which the nonsense suppression is 0.114.

Turning to G18U A60G, the nonsense suppression was ≤ 0.026.

U21C A30G C72A: the nonsense suppression is ≤ 0.026.

In the case of A54C U57A G88A, the nonsense suppression is ≤ 0.026.

On to G15C C27U U63G, for which the nonsense suppression is ≤ 0.026.

C77U C80U: the nonsense suppression is ≤ 0.026.

For C1A G25U A33U, the nonsense suppression is ≤ 0.026.

As to G19U A24C G26A G65C, the nonsense suppression is ≤ 0.026.

In the case of C3G G59A G78U A87U, the nonsense suppression was ≤ 0.026.

Regarding G19U U21C, the nonsense suppression was ≤ 0.026.

With G25C G69U, the nonsense suppression was ≤ 0.026.

Regarding U21A C34A U71G, the nonsense suppression was ≤ 0.026.

C1A A62G: the nonsense suppression is ≤ 0.026.

In the case of U63G G86A, the nonsense suppression was ≤ 0.026.

As to A14U U22C A62C U70C, the nonsense suppression is ≤ 0.026.

On to A54G G69U C77G, for which the nonsense suppression is ≤ 0.026.

Consider U21C C34U G88C, for which the nonsense suppression is ≤ 0.026.

Turning to G18U C29A A30C G86U, the nonsense suppression was ≤ 0.026.

Take U17G A33G C64A: the nonsense suppression is ≤ 0.026.

For the variant A23U U35G, the nonsense suppression was ≤ 0.026.

For the variant U2C C29U A62C G69U G88U, the nonsense suppression was ≤ 0.026.

As for A33G U57A U76C, the nonsense suppression was ≤ 0.026.

On to G10U A14G U63C U76C G88U, for which the nonsense suppression is ≤ 0.026.

With U2G U55C, the nonsense suppression came out at 0.053.

In the case of C3U U22C U55A, the nonsense suppression was ≤ 0.026.

On to U22C C29A, for which the nonsense suppression is ≤ 0.026.

As for C11U G19C, the nonsense suppression was ≤ 0.026.

In the case of U2C A14U U57C, the nonsense suppression was ≤ 0.026.

G18U G19A: the nonsense suppression is ≤ 0.026.

Take U2C G69U C75U: the nonsense suppression is ≤ 0.026.

Consider A24G C29A A54U C80G, for which the nonsense suppression was ≤ 0.026.

As for C1U C29A, the nonsense suppression is ≤ 0.026.

Turning to G15A U17A G69U, the nonsense suppression is ≤ 0.026.

C34G G73C: the nonsense suppression was ≤ 0.026.

Take U35A U57G C79G: the nonsense suppression is ≤ 0.026.

As to U2C G6U A31C U71G A74G, the nonsense suppression was ≤ 0.026.

G10U A24U A30U G85U: the nonsense suppression is ≤ 0.026.

Turning to C3G G67A C81G C82U, the nonsense suppression is ≤ 0.026.

As to G15A U20C G84C, the nonsense suppression is ≤ 0.026.

C3U U8C C11G U63A: the nonsense suppression is ≤ 0.026.

As for C5G C12U A30G, the nonsense suppression is ≤ 0.026.

For the variant U71G C77A C79U A87G, the nonsense suppression is ≤ 0.026.

In the case of G59A C81A, the nonsense suppression is ≤ 0.026.

For G26A C82A G86A, the nonsense suppression is ≤ 0.026.

With C3A U55A C80U, the nonsense suppression was ≤ 0.026.

Regarding U21G U55C G61C G73A, the nonsense suppression was ≤ 0.026.

Consider A9G U21A, for which the nonsense suppression stood at 0.36.

As to U8C G61A U70G, the nonsense suppression was ≤ 0.026.

In the case of U55C G65A A89C, the nonsense suppression is ≤ 0.026.

G10U C77G: the nonsense suppression was ≤ 0.026.

With A54U U70G U76G, the nonsense suppression was ≤ 0.026.

With U4G G88A, the nonsense suppression was ≤ 0.026.

With A62G C80U A89G, the nonsense suppression was ≤ 0.026.

As for A14C G78C, the nonsense suppression was ≤ 0.026.

On to C3G A9U U20C G61C G85C, for which the nonsense suppression was ≤ 0.026.

Take C34U G78A C79A: the nonsense suppression was ≤ 0.026.

As for U17A U70G, the nonsense suppression was ≤ 0.026.

For the variant U4C U17G A24C G26A, the nonsense suppression was ≤ 0.026.

As for U2G U16A G73A, the nonsense suppression is ≤ 0.026.

As to A24G C27A A30U C75G, the nonsense suppression was ≤ 0.026.

Take C3U U55A U63A G86C: the nonsense suppression was ≤ 0.026.

Consider C3U U4C U16C G19C U63C G66A, for which the nonsense suppression was ≤ 0.026.

Turning to U55G G69C G73U, the nonsense suppression was ≤ 0.026.

Take C3U A31G: the nonsense suppression came out at 0.0805.

As to U2G G10C C34A G85A, the nonsense suppression was ≤ 0.026.

Turning to C3G G7U G25C C27U G67A, the nonsense suppression is ≤ 0.026.

Turning to U21A U71A, the nonsense suppression was ≤ 0.026.

With G28U U57G G78A, the nonsense suppression is ≤ 0.026.

Consider A13G U21G C77U, for which the nonsense suppression was ≤ 0.026.

In the case of U2A A9U C79A, the nonsense suppression is ≤ 0.026.

Consider A14C G84A, for which the nonsense suppression was ≤ 0.026.

Regarding U4C C27G G32A A62G, the nonsense suppression is ≤ 0.026.

U2A U35C C77U C79A G86A: the nonsense suppression is ≤ 0.026.

As for C11U U17G, the nonsense suppression is ≤ 0.026.

Take U22A G32C: the nonsense suppression was ≤ 0.026.

For the variant C3G C77A, the nonsense suppression was ≤ 0.026.

For G15C G19A U21G, the nonsense suppression was ≤ 0.026.

As for A33G C56U, the nonsense suppression was ≤ 0.026.

Turning to C34G G78A C81G, the nonsense suppression is ≤ 0.026.

For G25A C29A G84C, the nonsense suppression is 0.027.

Turning to C56A A62U, the nonsense suppression is ≤ 0.026.

With U16A A24C G88A, the nonsense suppression was ≤ 0.026.

With C5A U16A U21G, the nonsense suppression is ≤ 0.026.

In the case of U55G C56A, the nonsense suppression is ≤ 0.026.

For C1A U57A A62U, the nonsense suppression was ≤ 0.026.

U4G G66A A89C: the nonsense suppression was ≤ 0.026.

For the variant C5U C68A C82G, the nonsense suppression was ≤ 0.026.

Consider U35C U57C U58G G59A, for which the nonsense suppression is ≤ 0.026.

As for C12G C34A, the nonsense suppression is ≤ 0.026.

In the case of U21A A24G G65C C80A, the nonsense suppression is ≤ 0.026.

In the case of A14G G88A, the nonsense suppression was ≤ 0.026.

Regarding U17C G32C C72U, the nonsense suppression was ≤ 0.026.

For the variant U57C A89U, the nonsense suppression was ≤ 0.026.

Consider U16A A31U U55G, for which the nonsense suppression was ≤ 0.026.

A62U G65A C80G: the nonsense suppression was ≤ 0.026.

In the case of C1U G28C U58G, the nonsense suppression was ≤ 0.026.

Turning to A24G C56G G59C G66A G73C, the nonsense suppression was ≤ 0.026.

In the case of C1A A31U A54U, the nonsense suppression is ≤ 0.026.

As to G28C G67A, the nonsense suppression stood at 0.0635.

On to A9G G26U A62G G78C, for which the nonsense suppression is ≤ 0.026.

For the variant G18A U55A U58A, the nonsense suppression is ≤ 0.026.

Consider A54G G73A, for which the nonsense suppression worked out at 0.122.

In the case of U8C U58A G66C, the nonsense suppression was ≤ 0.026.

Take U63G A87U: the nonsense suppression worked out at 0.0518.

Turning to C27G A30U G61C A89G, the nonsense suppression is ≤ 0.026.
